Measurements reported in the supplement of paper PMC3334620.
Whole data set: some 33,000 sequences, median “E-score (-0.5 to 0.5)” near -0.016, cut for the highest 2% near 0.31. The list shows a part of the results.

These sequences were tested against Cst6 (UniProt P40535) (assay: PBM E-score (8-mer binding enrichment) (E-score (-0.5 to 0.5)); higher = stronger / more preferred TF binding; most listed sequences are background and not binding sites). Conditions: protein concentration: 200 nM; construct: GST-DNA-binding domain.
Procedure: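 Universal 'all 10-mer' protein binding microarrays (Agilent AMADID 015681) probed with GST-tagged S. cerevisiae TFs (full-length or DBD) made by in vitro transcription/translation (PURExpress), about 100-200 nM. Bound TF was detected with fluorescent anti-GST. Each ungapped 8-mer (which stands for itself and its reverse complement) is scored by the PBM enrichment score (E-score), a modified Wilcoxon-Mann-Whitney statistic from -0.5 to +0.5, computed with the Universal PBM Analysis Suite. Scale: above 0.35 generally sequence-specific binding.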

Sequence	PBM E-score
CCGCTGTC	-0.179
AAGCCTGC	-0.118
ATTGACAA	-0.00121
TATACCGA	0.00086
CCAGCAAA	0.055
AAATTTGC	0.0737
AAATACTA	0.216
GTCTGGTA	-0.0596
GATGAAGC	-0.0781
GGCTCGAA	0.00691
TCTACCCA	-0.107
GAGGACCC	-0.341
ATAATCAG	0.106
CATGGGTA	-0.0527
CGTATGAC	0.443
AGGGCATC	-0.0843
CATGCGTA	0.15
CCAAGAAA	0.0709
TGCACGCA	-0.0594
AATACTAA	0.23
ATCAAAAT	0.101
GGTAGGAA	-0.199
AACGTTCA	-0.0579
TAACCGAA	-0.0904
ATCTGATC	0.0364

Sequence	PBM E-score
GGTGAATA	0.0601
AAACAGAC	0.017
ACGGACTA	-0.0648
CCGTCGCC	-0.0855
CGCTTAAG	-0.0826
CCTTGTAC	-0.0491
CCCCATAC	-0.126
AGCTCAGG	0.163
AGTTTTGG	0.029
GTGACCTA	0.192
AAATCCGA	0.0442
CGTGGTAG	-0.0502
CGCTGATC	-0.00594
CCAAGGTC	-0.189
GCGGTCTA	-0.0855
AGCAATTG	0.158
ACGCAGCT	-0.00659
GGAACCAC	-0.0995
CATCCAGG	-0.216
ATATACTC	0.0668
CACTATAA	0.0085
AGCGTATA	0.0915
AAGCCGGC	-0.187
GCTTACAA	0.0326
AGCCTCGA	-0.128

Sequence	PBM E-score
AAAGGGAT	0.032
AGAAAGCC	0.119
CTCTCCTC	-0.386
ACCCGCGG	0.0671
CGTTCTAC	-0.153
CAAGAAAA	0.188
TACCCGCA	0.11
CAATGGAG	-0.139
AGTCACCG	0.0644
AGAAACCC	-0.0201
TAATGTAA	0.245
AGCAGCCA	-0.0967
GACTTGAA	-0.171
CCCTGAAG	-0.156
CAACTACA	0.105
CCCTGGGA	-0.296
GCCAGCCA	-0.197
ATGTACCA	0.00974
CGGTGGAC	-0.248
GACATGGA	0.00273
CCTGGAGA	-0.132
GATGTGAC	0.09
CACTCGAG	-0.159
GATCGATC	0.103
CCTCCTCC	-0.339

Sequence	PBM E-score
GCAAGTCC	-0.277
AACATGCC	0.0181
CCGCTACA	-0.206
ATTACCAA	0.167
AAGGGCCG	-0.0634
GGTACCCA	-0.187
CTCGGGCA	-0.0998
CTTAGTGA	0.106
AGACCATA	0.106
CGAGCCGA	-0.122
ATGACTCC	0.0246
CAACAGAA	0.0546
ATTAGAAG	0.0209
AGGTTGCA	0.0922
ATCCGAGG	-0.066
GATGGTTA	0.0793
CAGACAAG	-0.14
AAATCGAA	0.124
CAGGCCAG	-0.17
CCAGGAGG	-0.294
ATGCGAAG	0.0305
CCAAAATA	0.163
AATCGATG	0.238
AAAGGTAC	-0.104
TCCCCCGA	-0.326

Sequence	PBM E-score
ATACTGAG	0.164
CATGTCAC	0.36
AAATCATG	0.2
CCGTAAAG	0.00566
GGCGCCCA	0.0785
CTGGTGGA	-0.263
CAAAGAGC	-0.0802
GGAGCCCC	-0.32
CTTTTCAA	0.158
ATTCAGCA	0.00552
CGCCGAGC	0.0842
CCTTGTGC	-0.322
CGTAGACA	-0.0846
TGCCCCAA	-0.059
GAGGTTAC	-0.00533
GAAAATAC	0.0815
AACGAATG	0.113
CAGTATAC	0.154
CAAATACG	0.0811
CGGGGTTC	-0.289
GGGGGAAA	-0.247
CTAAATGC	0.065
AAAGGGAA	-0.0935
AGAAACTC	0.0705
CCGGTCAC	-0.079

Sequence	PBM E-score
CTCAACTC	-0.0659
AACGATCT	-0.0808
GCTACTCA	0.00083
ATACAGGA	-0.0267
AGCGCACT	-0.303
ACCATCGG	-0.172
ACCGCGTA	-0.0111
CCAACGGA	-0.112
GCGTACTA	-0.126
ATGAGCAA	0.156
AAGACGAT	0.198
AGCGCGCC	-0.00777
AGGACAGC	-0.144
GACACCCC	-0.247
CACTAACC	-0.049
ACAAGTGA	0.0779
CGAAGTGA	0.135
ACGTTCGG	-0.172
GCACGAGC	-0.099
GCATAGAC	-0.165
AGAAACAT	0.135
AGGGACCA	-0.245
GCTCCGCC	-0.185
AGTCTACC	-0.307
ACTGTTAG	-0.0504

Sequence	PBM E-score
CTTCGCTC	-0.00522
CTGCCGTC	0.0959
GAAATCCA	0.106
GGTTAATA	0.115
CAGCTGGG	-0.33
CTAACGAA	0.0703
GGGTGAAC	-0.0245
CTGTTCGA	-0.178
AAGTGATT	0.167
ATTCCTCC	-0.175
CTGTTGCC	-0.21
GACTTTTA	0.0138
ATAGACCG	-0.135
ACGATTAG	0.146
GTGTTTAA	0.086
GCAAAAGA	0.0271
ATAGCCCG	-0.168
ATACGCGG	-0.0099
AGGGACTG	-0.286
ACAACCCC	-0.169
GATGGTAC	-0.00144
ATCAGATC	-0.0398
CAATTGTA	-0.0548
AACGAGTA	0.0339
CGTGGATA	-0.0636

Sequence	PBM E-score
ATCCAGTC	-0.124
AAGCGGTC	-0.162
ACGTTCAG	-0.119
GCGGTACA	0.0324
AGCACACT	-0.136
AGACTACC	-0.0496
ATCAAACC	0.134
GCATAGCC	-0.144
CCATTATC	0.109
CCAGTCCG	-0.369
AACAGATC	0.0882
GTTGGCTA	-0.0861
ACGCGCCC	0.0513
GGGTTACC	-0.19
CGTGCAAC	0.0271
GTCTTAGA	-0.0166
GCTGCTAA	-0.157
AATACAGG	-0.00258
ATAACGGA	0.0881
AGGCTTAT	0.0253
ATAGCCTA	-0.00384
CCCCTCCA	-0.131
AGATTCCC	-0.0816
ACGATGGG	-0.123
CTATAACA	-0.00043

Sequence	PBM E-score
CCTGGGGC	-0.365
AACTGCTC	-0.0302
CGCTCTCC	-0.244
ACATGAAT	0.154
CATCTGCC	-0.172
TAATCAGA	0.0853
CATTTCAC	0.0118
CTCCGCAC	-0.0765
GCCCTCAC	-0.144
CGATCTAC	-0.0652
GTTGCTAA	0.0649
CTGTGAAG	-0.145
CCCTGTGA	-0.0755
CGAACAGC	-0.162
CCTGTTAC	0.0428
ATTTCCCA	0.0756
ATAACACG	0.0187
AGGCATCC	-0.192
GGAAGTTA	0.0687
AATCAAAC	0.228
GGTTCATA	-0.0466
CCCCCCGG	-0.359
AGAGATCC	-0.209
CTAGCCGC	0.122
CCACTTAC	0.226

Sequence	PBM E-score
GGCGCGCC	0.189
ACTACAAT	0.124
ATTGCAAG	-0.0304
AGATCACA	0.0965
AAGGCTAT	-0.00067
AGGCAGAA	-0.0542
CCCGAAAG	-0.189
CATGTGGC	0.198
CGTCCATA	0.0416
GCGGTATA	-0.0382
GGCCACCA	-0.0259
CGGAATTA	0.139
AGAGCAAG	-0.096
ACACGAGT	0.028
GGTACTAA	0.0892
ACAATCGT	0.0442
GTGGCTAA	0.18
ACGATCCC	-0.247
CCAAGCGG	-0.277
ACCTGATA	0.0632
CCCGTTCA	-0.214
CCAACAGG	-0.296
CTATATAC	0.338
AAAGGGGG	-0.279
TTGACAAA	0.173

Sequence	PBM E-score
ATGCGAAT	0.0707
AATAATGA	0.288
GAAAATGA	0.172
AACCTTAT	-0.0574
ACTCCGGA	0.078
AACGGATA	0.17
CCAGTCAA	-0.094
ACGGGCAC	-0.105
CGCGAGGC	0.218
AATAGATC	0.0908
CCTTAGCC	0.00557
TCTAAAGA	0.141
AAGTCATC	0.114
AGAAGGCC	-0.15
AAGAACGG	-0.194
CTGCCAAA	-0.093
CGATTCTA	-0.0553
AAAAGTCC	-0.0737
AGTCCACT	-0.257
AAGAAGGT	-0.0538
CTACCGCC	-0.135
CGATAAGC	-0.119
TGGAGGAA	-0.211
AGATAGGG	-0.153
AGACCAAG	-0.0456

Sequence	PBM E-score
GAATGCAA	0.0526
ACCGGTAC	-0.162
GCGTTAGA	-0.0463
AATTAACG	0.226
ATTACCTC	0.195
AACGCGAC	-0.14
ATGCAAAG	0.0281
GGGCTTCA	-0.297
ATAGTCAG	0.0343
CAAACGCG	0.0743
GCACCAGA	0.025
AGCCGCAA	-0.127
CCGCTTTC	-0.117
ACAATAAT	0.233
CGACCTCG	-0.0837
TCACGAGA	0.0367
ACTGAAGC	0.069
CACTCCTG	-0.129
ATGATAGC	0.191
GAAAGTCA	0.0808
AAAGCCCA	6e-05
AAGAATTA	0.157
ACCCGGAA	-0.0522
CTGAAGGC	-0.0853
GTCTAGAA	-0.0503

Sequence	PBM E-score
TATTTAGA	0.156
CATCCCCG	-0.107
CAAAATTC	0.246
ATCTGGTC	-0.126
TGATGCAA	0.418
GACAAACA	0.123
TGCCGACA	0.0401
CCATTGTA	0.0543
TACAAGCA	0.126
AATGCACT	0.0519
ACGTATAT	0.237
CCCGAAAC	-0.0275
CTACAGGA	-0.0104
AAATGATC	0.0366
CGGGCTCC	-0.362
CAGGACCG	-0.29
GGCCTTAC	-0.121
CGGGCGGA	-0.163
AAAGATAA	0.308
CTTATCAC	0.0776
GGATGCGA	-0.196
AGGAAACT	-0.138
ACCCTATA	-0.214
ATTCCATC	0.199
CCCAATTA	0.0563

Sequence	PBM E-score
CCACATGA	0.144
GAAGTGAC	0.263
CGAAGGGC	-0.0477
CTCACGTC	0.14
CGGGACTA	-0.284
GAAACGAA	0.182
AAAATATG	0.209
GCCAATTA	0.065
ACGTTTAG	0.126
CGTGTGTC	0.0817
ATGCTTCG	-0.0104
ACAGGATC	-0.244
CGACTTGC	-0.0945
TACAGCTA	-0.236
CGTGAAAC	0.179
ACAATGAT	0.269
GTGAGGAA	-0.0605
ACGCAAAT	0.161
TCCACGAA	0.158
